# This is one part of the list. These are noisy estimates, calculated here from bound and input reads.
# Biological target: T1, Pho4 (S. cerevisiae) (UniProt P07270)
# T1 sequence: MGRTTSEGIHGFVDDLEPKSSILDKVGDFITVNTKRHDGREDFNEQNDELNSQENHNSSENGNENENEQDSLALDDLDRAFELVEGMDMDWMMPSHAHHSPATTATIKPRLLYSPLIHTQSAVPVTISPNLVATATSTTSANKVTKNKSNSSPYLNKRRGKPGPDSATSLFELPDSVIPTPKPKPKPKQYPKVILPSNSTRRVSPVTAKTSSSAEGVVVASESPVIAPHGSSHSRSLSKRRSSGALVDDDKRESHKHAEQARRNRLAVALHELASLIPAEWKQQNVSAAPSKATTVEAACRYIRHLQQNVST
# Experiment: relative binding free energy (BET-seq); higher = weaker binding
# Settings: reference: library average
row,Sequence,relative binding free energy [kcal/mol]
1,GGATCCACGTGGGCGT,0.07
2,TAAAGCACGTGTAAAT,0.24
3,GGGTTCACGTGTATTC,0.25
4,CTGTTCACGTGTAGAT,0.49
5,TGGGTCACGTGTTGCA,0.2
6,CTTTGCACGTGTAGTC,0.13
7,ATTATCACGTGAGAAG,0.29
8,GGACGCACGTGAGGTA,0.12
9,ATTAGCACGTGTTAAA,0.08
10,GGTATCACGTGGTAAT,0.15
11,TGTGTCACGTGCGTGG,-0.06
12,GGAGACACGTGGGGCT,-0.09
13,TCTATCACGTGCGGTG,0.11
14,GATGGCACGTGTCGGC,0.01
15,TTATTCACGTGTCGTG,0.19
16,TAATTCACGTGTTGTC,0.36
17,TGGGTCACGTGTGGTG,0.18
18,ATTAACACGTGTTGGG,0.06
19,GGTAACACGTGGCTGG,0.04
20,GTTTGCACGTGGCGTG,-0.05
21,AATTTCACGTGGGGTC,0.23
22,CATGTCACGTGGTCTG,-0.03
23,TGTTGCACGTGCAGGA,-0.05
24,GGCCACACGTGTAGGG,0.12
25,AGGTACACGTGGTGGC,-0.03
26,GTTAGCACGTGTATCT,-0.01

row,Sequence,relative binding free energy [kcal/mol]
1,TATTTCACGTGAGGTT,0.25
2,GCTTGCACGTGTTAGT,-0.01
3,TGACGCACGTGTATGT,-0.18
4,TTGATCACGTGCGTCT,0.1
5,TATGTCACGTGGAGGT,0.18
6,GTTTGCACGTGGGCGT,-0.03
7,TGAAACACGTGTTATG,-0.02
8,ACATGCACGTGGATGG,-0.08
9,GGTTGCACGTGTAGAG,0.21
10,AGATGCACGTGTGGTT,-0.02
11,TAAGTCACGTGATCTT,0.15
12,GAGGGCACGTGTGTGA,-0.04
13,TGGTGCACGTGTCCGT,-0.18
14,GGTTTCACGTGTTTAC,0.4
15,TGAAGCACGTGGGCGC,-0.08
16,AAATACACGTGGATTG,0.16
17,AGATTCACGTGGGGGG,0.21
18,TATATCACGTGCAGGT,-0.03
19,TTTGTCACGTGCATCG,-0.02
20,TATAGCACGTGAGTTC,0.17
21,AAAGACACGTGGTTTT,0.09
22,GTTTTCACGTGGCTTG,0.31
23,GGTCACACGTGTCGGG,0.02
24,TGGAACACGTGGTAAT,-0.08
25,TTATTCACGTGTTAGC,0.19
26,TTATTCACGTGGCTGG,0.18

row,Sequence,relative binding free energy [kcal/mol]
1,AGTAACACGTGGGTGC,-0.13
2,GTTTACACGTGCGTGG,0.16
3,GCTATCACGTGGCGGG,0.13
4,GGGAGCACGTGAGGTG,0.24
5,CGGTGCACGTGGTGAA,-0.16
6,CGTACCACGTGTGGTT,0.09
7,ATGTACACGTGGGCCG,-0.14
8,AGAAGCACGTGCTGTA,-0.01
9,TTTCTCACGTGGAGTT,0.42
10,GGGCCCACGTGGGATG,-0.02
11,CAAGGCACGTGTTGTG,-0.15
12,TTATTCACGTGGGTGC,0.1
13,TCTTCCACGTGAGGGG,0.27
14,ATTGACACGTGGTGTA,-0.19
15,GTGTACACGTGAGTTC,0.26
16,CTTGGCACGTGAGTGG,0
17,GTTATCACGTGATGGT,0.31
18,TGGTTCACGTGACTCG,0.33
19,GGAGACACGTGGGGGG,-0.14
20,GTATTCACGTGATAGA,0.24
21,TAGGGCACGTGTCGAT,0.02
22,ATGGTCACGTGGTTAG,0.1
23,TTGAGCACGTGTAGCG,-0.09
24,AGTTACACGTGTTTCG,-0.03
25,TGGAGCACGTGAGGGG,0.18
26,GCGTTCACGTGCGTTG,0.22

row,Sequence,relative binding free energy [kcal/mol]
1,GACTGCACGTGGGGTC,-0.1
2,AGGCGCACGTGGAGGG,-0.1
3,TGGTGCACGTGTGATA,0.1
4,TTGTTCACGTGTATGA,0.2
5,AGATGCACGTGATCGT,0.19
6,GGGGCCACGTGGAGAT,-0.09
7,TGGTACACGTGTTTCA,-0.08
8,TTTGCCACGTGGTGTT,-0.18
9,GCGTGCACGTGGTGTC,-0.08
10,GGTCACACGTGATGCG,0.34
11,GGTCTCACGTGAATGT,0.4
12,ATTCGCACGTGTGGTT,0.14
13,CTATACACGTGTAGTT,0.02
14,TTAATCACGTGAGGGC,0.24
15,GCGCTCACGTGTGTGT,0.18
16,GTGTACACGTGTGACT,0.18
17,TATTACACGTGGGTGC,-0.05
18,AGTTCCACGTGGGGCT,-0.05
19,TGGGGCACGTGTGGGG,0.01
20,ACAGTCACGTGAGGTT,0.16
21,AGTATCACGTGTTTTA,0.12
22,GGAGACACGTGGATTT,0.09
23,ATGACCACGTGTGTGT,0.08
24,TGGTGCACGTGCTCTG,-0.2
25,AAGGTCACGTGGTTAC,0.1
26,GCGTTCACGTGTAGAG,0.34

row,Sequence,relative binding free energy [kcal/mol]
1,TTGTACACGTGTGCTA,0.11
2,CTTTTCACGTGATAGG,0.25
3,GAGATCACGTGTTGGC,0.26
4,GTATGCACGTGGCAGT,-0.15
5,GTAGTCACGTGTTATA,0.17
6,AAGGACACGTGTGTTG,0.07
7,GTTATCACGTGGGTCT,0.04
8,AATAACACGTGAAGTG,0.32
9,AGGAACACGTGTGGTC,0.11
10,AGTCACACGTGGCAGT,0.1
11,AGTGTCACGTGGATGT,0.02
12,ATACGCACGTGTAGGT,-0.13
13,CTACGCACGTGGATGT,0.04
14,ACGAGCACGTGGTGGT,-0.11
15,GTGTCCACGTGGAGTA,0.05
16,AGAAGCACGTGGGCGT,-0.22
17,GGAGCCACGTGGGGAC,0.01
18,AGGTCCACGTGGGGGC,-0.23
19,GATAGCACGTGTCGTA,0.13
20,TGAGTCACGTGAATAA,0.45
21,CGGTGCACGTGTAGAG,0.06
22,GTTATCACGTGTGCAG,0.23
23,TTATACACGTGTTTGC,-0.01
24,AGGATCACGTGTGCGG,0.1
25,CGGTGCACGTGTGGCC,0.09
26,GGTTGCACGTGCTTGG,-0.05

row,Sequence,relative binding free energy [kcal/mol]
1,GAGATCACGTGGGGTT,0.06
2,AGAGGCACGTGGGTTC,-0.1
3,CGAGGCACGTGCGGAG,-0.14
4,GGCATCACGTGGCAGG,0.16
5,GTTGACACGTGGTGGC,0.09
6,AGGGCCACGTGGGAGG,-0.26
7,GAGCGCACGTGTAGGT,-0.13
8,TTTCGCACGTGTTTGA,-0.04
9,TAGGACACGTGTGTAT,0.15
10,AAAGTCACGTGTGTTA,-0.06
11,TTCATCACGTGGGTCG,0.02
12,CGTGTCACGTGAACGT,0.29
13,TTCGGCACGTGAAGGT,0.23
14,TATGACACGTGGGGGC,-0.24
15,TTACGCACGTGCGGGA,-0.04
16,TGGTACACGTGGGTTA,-0.02
17,TACGTCACGTGTATTT,-0.05
18,GTGGTCACGTGGCCGT,0.12
19,TAAATCACGTGTTATA,0.11
20,TTGTACACGTGAGTAT,0.18
21,GTGTGCACGTGTGGGT,0.03
22,TTAAACACGTGGCTGT,-0.15
23,GTAGTCACGTGCCGTG,0.04
24,TTCGTCACGTGTTGGA,0.02
25,CTGGGCACGTGGTACA,-0.11
26,TTGGGCACGTGCAAAG,-0.19

row,Sequence,relative binding free energy [kcal/mol]
1,TTAGTCACGTGGTAGG,0.08
2,TTAGTCACGTGATTGC,0.2
3,TTGGGCACGTGTTGAC,0.12
4,GTATGCACGTGTGGCG,0.12
5,TGTGACACGTGCTAGG,-0.1
6,AAGGACACGTGGGGCT,-0.11
7,TTTCACACGTGGGGCT,-0.06
8,TATAGCACGTGGCGTT,-0.14
9,CTAGTCACGTGGGTCG,-0.04
10,TGATTCACGTGTAGCT,0.2
11,TGAGACACGTGATATG,0
12,TGAGGCACGTGTGAAT,0.09
13,ATAGACACGTGTAGGC,0.11
14,GGTCGCACGTGTATGT,-0.07
15,ATGTTCACGTGGCTGA,0.29
16,AGAGTCACGTGGGCGT,-0.13
17,CTAGTCACGTGACGGT,0.38
18,TTCTGCACGTGGTGAA,-0.11
19,GTTTTCACGTGACTGT,0.33
20,TGAATCACGTGGATGG,0.22
21,GAGGGCACGTGATTTT,-0.01
22,AAAGGCACGTGTTATA,0
23,GATGCCACGTGTGTGG,0.1
24,TACCTCACGTGAGGGG,0.41
25,AGGTTCACGTGCTGGA,0.21
26,GAGTGCACGTGAGAGT,0.34

row,Sequence,relative binding free energy [kcal/mol]
1,CATAGCACGTGGCGGG,-0.17
2,GGAGGCACGTGGCGGA,-0.23
3,GTGGACACGTGGGTGG,0.06
4,TCAGGCACGTGGTGTA,-0.09
5,TAGGGCACGTGCTTTT,-0.21
6,TATAACACGTGAGGTG,0.25
7,TTTGTCACGTGGCTTG,0.03
8,TGTGGCACGTGTTGTT,0
9,ACTTGCACGTGGTAGG,-0.09
10,TTAAGCACGTGAGCTG,0.19
11,AAGAGCACGTGATGAG,0.04
12,TTGCGCACGTGGGGCT,-0.28
13,ATTTTCACGTGTGAAT,0.29
14,CGCTGCACGTGGGGCA,-0.12
15,GGGTTCACGTGGCATA,0.2
16,GAGGTCACGTGATCGT,0.14
17,AGTGGCACGTGGTGTT,-0.07
18,GGAAGCACGTGGCTGT,-0.2
19,CGATTCACGTGTGGGT,0.38
20,TGCATCACGTGTTGCT,0.22
21,TGGTACACGTGAATGT,0.23
22,ATATACACGTGGGATG,-0.26
23,AGGGTCACGTGAAGGC,0.12
24,GAAGCCACGTGGGATG,0.01
25,GGCAGCACGTGAAGTT,0.23
26,TATGTCACGTGTTGGT,0.09

row,Sequence,relative binding free energy [kcal/mol]
1,GGGGTCACGTGCGACT,0.08
2,GGATACACGTGGATGT,-0.08
3,TCAAGCACGTGTTGTG,-0.16
4,CTTTACACGTGGTATG,-0.13
5,AAAGCCACGTGGGTTG,-0.26
6,TGCAGCACGTGGCAGG,-0.13
7,AGGAGCACGTGGGCTG,-0.11
8,TGTGACACGTGTACTT,0.11
9,CCGGCCACGTGGTTGG,-0.07
10,TTAGTCACGTGAGTTA,0.41
11,ATATGCACGTGAGTAT,0.19
12,TTTATCACGTGTCAAT,0.1
13,GTAGGCACGTGGGTAA,-0.27
14,TAGGTCACGTGAGCTG,0.2
15,AAGGGCACGTGGCGTG,-0.16
16,TCCGGCACGTGATGGG,0.16
17,GTGGTCACGTGGTGGT,0.17
18,GTGGGCACGTGCTATT,0.05
19,GGGGACACGTGCAGGA,0.13
20,TTGATCACGTGGGGTG,0.05
21,TGGTACACGTGCGGAT,-0.05
22,TGAGACACGTGGGTTG,-0.13

# — the BET-seq Pho4 binding data (Le et al. 2018)
